Source: PubChem BioAssay AID2546 (National Center for Advancing Translational Sciences (NCATS), 2010)
In all, about 310,000 compounds went through this assay and about 11,000 (3.5%) were called active. The shares of active, inactive and inconclusive entries below differ from those in the screen. Calls come from the whole dose curve; as a rule, active = well fitted inhibition curve with a large enough effect; inconclusive = small, poorly fitted or top-dose-only effect, or effect the other way; inactive = flat fitted curve, though single readings scatter. Potencies of inconclusive entries are left out as doubtful fits.

assay: VP16 counterscreen qHTS for inhibitors of ROR gamma transcriptional activity; conditions: Drosophila S2 Gal4-VP16 UAS-luciferase, luminescence, 20 h; activity, negative = inhibition: at 53.6 µM (top of the series);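 note: Gal4-VP16 expression switched on by copper sulfate through the metallothionein promoter; nearly all actives have a fitted effect of over 50% in size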
% is set by controls: 0 for no effect and ±100 for the full control effect; potency is the fitted concentration of half-maximal effect; tags give direction and shape of the fitted curve.

Q: For `CN(c1ccccc1)S(=O)(=O)c1cccc(NC(=O)CN2CCCc3ccccc32)c1`, which Potency is on record?
A: inconclusive [inhibitor, single point]

Q: With `CC(Oc1ccc(Cl)cc1)C(=O)NNC(=S)NC(=O)c1ccco1` (stereo unspecified) as the compound, how does the Potency read?
A: inconclusive [inhibitor, single point]

Q: Which Potency does the source give for `Cc1ccc2c(Cl)cc(Cl)c(OCC(=O)N3CCCC3)c2n1` here?
A: inconclusive [inhibitor, single point]

Q: With `Cc1cccc(-n2nc(C)c3c(C(=O)O)cc(-c4cccs4)nc32)c1` as the compound, how does the “activity, negative = inhibition” value read?
A: inactive: -2.91%

Q: For `O=C(N/N=C/c1cccc(OC(=O)c2ccc3c(c2)OCO3)c1)c1cncc(Br)c1`, which Potency is on record?
A: inconclusive [inhibitor, single point]

Q: With `Cc1nn(-c2ccccc2)c(C)c1/C=N/NC(=O)c1ccccc1O` as the compound, how does the Potency read?
A: inconclusive [inhibitor, partial curve]

Q: For `COc1ccc(N2C(=S)NC(C)(C)CC2(C)c2ccc(OC(C)=O)cc2OC(C)=O)cc1` (stereo unspecified), which Potency is on record?
A: inconclusive [inhibitor, single point]

Q: Which Potency does the source give for `O=C(CSCc1ccc(F)cc1)NC1CCCC1` here?
A: inconclusive [activator, partial curve]

Q: For `Cc1ccsc1CNc1ncnc2ccc(-c3c(C)noc3C)cc12`, which Potency is on record?
A: inconclusive [inhibitor, full curve, poor fit]

Q: Which Potency does the source give for `CN(NS(=O)(=O)c1ccc(F)cc1)c1ncc(C(F)(F)F)cc1Cl` here?
A: active: 6.31 µM

Q: Which Potency does the source give for `CCCn1c(C(O)c2cc(OC)c(OC)c(OC)c2)nc2ccccc21` (stereo unspecified) here?
A: inconclusive [inhibitor, single point]

Q: For `O=C(O)/C=C/C(=O)Nc1ccccc1SC(F)(F)F`, which Potency is on record?
A: active: 10 µM

Q: Which Potency does the source give for `CCOc1ccc(N=C2NC(=O)S/C2=C\c2ccc(O)cc2)cc1` here?
A: inconclusive [inhibitor, single point]

Q: For `CC(C)C(=O)NC(=S)Nc1ccccn1`, which Potency is on record?
A: inconclusive [inhibitor, single point]

Q: For `O=C(Nc1cnn(C23CC4CC(CC(C4)C2)C3)c1)c1cnn2cccnc12`, which “activity, negative = inhibition” value is on record?
A: inactive: 3.09%

Q: With `O=c1cc(/C=C/c2ccccc2)oc2c1ccc1ccccc12` as the compound, how does the Potency read?
A: inconclusive [activator, single point]

Q: With `CCCC(=O)C1=C(O)C(C(=O)OC)C(C)(C)CC1=Nc1cccc2ccccc12` (stereo unspecified) as the compound, how does the Potency read?
A: inconclusive [inhibitor, single point]

Q: For `COc1ccc(OC)c(/C=N\NC(=O)c2c(C)nc3cc(C)ccn23)c1`, which “activity, negative = inhibition” value is on record?
A: inactive: 7.89%

Q: For `O=c1[nH]c2ccc(NCc3ccccc3OCc3ccc(Cl)cc3)cc2[nH]1`, which Potency is on record?
A: inconclusive [inhibitor, single point]

Q: For `CCC(Sc1nnnn1-c1ccccc1)C(=O)Nc1nc2ccccc2s1` (stereo unspecified), which Potency is on record?
A: inconclusive [inhibitor, single point]

Q: With `CC1(C)C2CC=C(/C=N/NC(=S)Nc3cccnc3)C1C2` (stereo unspecified) as the compound, how does the Potency read?
A: active: 1.26 µM

Q: With `O=C(NC(=S)Nc1ccccc1Br)c1ccc2c(c1)OCO2` as the compound, how does the Potency read?
A: active: 8.91 µM

Q: For `Cc1ccsc1/C=N\NC(=O)c1ccc2c(c1)OCO2`, which Potency is on record?
A: inconclusive [inhibitor, single point]

Q: For `COc1ccc(C(C)(C)C)cc1NC(=O)c1ccoc1C`, which Potency is on record?
A: inconclusive [inhibitor, partial curve, poor fit]

Q: With `C=CCSc1nnc(-c2ccc(Cl)cc2Cl)o1` as the compound, how does the Potency read?
A: inconclusive [inhibitor, single point]

Q: For `O=C(Nc1nc(-c2cccc3ccccc23)cs1)c1cnccn1`, which Potency is on record?
A: inconclusive [inhibitor, single point]

Q: For `CCCN(CC(=O)Nc1cc(Cl)cc(Cl)c1)CC(=O)Nc1ccc(F)c(F)c1F`, which Potency is on record?
A: active: 22.4 µM

Q: Which Potency does the source give for `C1=Cc2ccccc2Nc2ccccc21` here?
A: inconclusive [inhibitor, single point]

Q: For `COC(=O)c1ccccc1NC(=O)c1ccccc1OC`, which “activity, negative = inhibition” value is on record?
A: inactive: -7.05%

Q: For `COc1cccc(-c2cncnc2NCc2ccc(OC)cc2OC)c1`, which “activity, negative = inhibition” value is on record?
A: inactive: -3.48%

Q: Which “activity, negative = inhibition” value does the source give for `COc1ccc(N2CCN(C(=O)CN3CCN(c4nc(-c5ccc(F)cc5)cs4)CC3)CC2)cc1` here?
A: inactive: -19.1%

Q: Which Potency does the source give for `O=C1OCCC1Sc1nnc(-c2ccc(Cl)cc2Cl)o1` (stereo unspecified) here?
A: inconclusive [inhibitor, partial curve, poor fit]

Q: With `O=C(N/N=C/c1c[nH]c2ccccc12)c1cc(-c2ccccc2)n[nH]1` as the compound, how does the “activity, negative = inhibition” value read?
A: inactive: 1.96%

Q: Which Potency does the source give for `O=C1CC(c2ccc3c(c2)OCCO3)Oc2ccc([N+](=O)[O-])cc21` (stereo unspecified) here?
A: active: 12.6 µM

Q: For `Cc1cccc(OCc2n(CC(=O)OC3CC(C)CCC3C(C)C)c3ccccc3[n+]2C)c1` (stereo unspecified), which Potency is on record?
A: inconclusive [inhibitor, single point]

Q: For `Cc1cccc(C)c1NC(=O)CNC(=O)C(NC(=O)c1ccc(C(C)(C)C)cc1)C(C)C` (stereo unspecified), which “activity, negative = inhibition” value is on record?
A: inactive: 3.38%

Q: Which Potency does the source give for `Cc1nc2ccccc2nc1N/N=C/c1ccc(O)cc1O` here?
A: active: 15.8 µM

Q: For `CCOC(=O)Cc1cc(=O)n(-c2nc3ccccc3s2)[nH]1`, which “activity, negative = inhibition” value is on record?
A: inactive: 3.54%

Q: For `CC1CCN(C2=C(NS(=O)(=O)c3ccc(Cl)cc3)C(=O)c3ccccc3C2=O)CC1`, which Potency is on record?
A: inconclusive [inhibitor, single point]

Q: Which Potency does the source give for `O=C(O)/C=C/C(=O)NNC(=O)c1cccc(Br)c1` here?
A: inconclusive [inhibitor, single point]

Q: For `CC(NC(=S)NNS(=O)(=O)c1ccc(C(C)(C)C)cc1)c1ccccc1` (stereo unspecified), which Potency is on record?
A: inconclusive [inhibitor, single point]

Q: For `O=C(CCc1ccc(O)c(O)c1)NNC(=S)Nc1ccc(Br)cc1Cl`, which Potency is on record?
A: inconclusive [inhibitor, single point]

Q: Which “activity, negative = inhibition” value does the source give for `O=C1OCCC1N(C(=O)C1CC1)c1cccc(Cl)c1` (stereo unspecified) here?
A: inactive: -3.8%

Q: For `Cc1cnc(CNc2nc(-c3ccc(C(=O)N(C)C)cc3)nc3ccccc23)cn1`, which Potency is on record?
A: inconclusive [inhibitor, single point]

Q: For `CCc1ccc(C(=O)CSC2=C(C#N)C(c3ccco3)C(C(C)=O)=C(C)N2)cc1` (stereo unspecified), which Potency is on record?
A: inconclusive [inhibitor, single point]

Q: Which Potency does the source give for `COc1ccc(N2CCN(C(=O)c3sc4ncn(CC(=O)N5CCCCC5C)c(=O)c4c3C)CC2)cc1` (stereo unspecified) here?
A: active: 22.4 µM
